Results published in PubChem BioAssay (NCATS).
Several values for one entry are separate records, joined by “and”; a condition that tells them apart may be missing. Identical values can stand only once. Inconclusive results, whose numbers are uncertain, are shown with a selection of clear calls. For some of these results: A potency beside an inconclusive call is a rough fit, not a confirmed value. Activity calls are given as the source filed them. Unless noted, calls follow the shape of the dose curve; as a rule, active = well fitted curve in the direction sought with a large enough effect; inconclusive = small, poorly fitted or top-dose-only effect, or another doubt; inactive = no such curve, though single readings can be large; an effect the other way counts as inactive or inconclusive.

Key:
[1] = target: Cytochrome P450 2D6 (Homo sapiens) (UniProt P10635); assay: Cytochrome P450 family 2 subfamily D member 6 (CYP2D6) small molecule antagonists: luciferase biochemical (cell-free) qHTS assay (AID 1645840; active = well fitted curve in the direction sought with a large enough effect in the repeat runs; inconclusive = weak or mixed curves; inactive = no such curve, though single readings can be large; an effect the other way counts as inactive or inconclusive; also: nearly all actives have a fitted effect of over 55% in size)
UniProt P10635, sequence (P10635 whole entry, looked up): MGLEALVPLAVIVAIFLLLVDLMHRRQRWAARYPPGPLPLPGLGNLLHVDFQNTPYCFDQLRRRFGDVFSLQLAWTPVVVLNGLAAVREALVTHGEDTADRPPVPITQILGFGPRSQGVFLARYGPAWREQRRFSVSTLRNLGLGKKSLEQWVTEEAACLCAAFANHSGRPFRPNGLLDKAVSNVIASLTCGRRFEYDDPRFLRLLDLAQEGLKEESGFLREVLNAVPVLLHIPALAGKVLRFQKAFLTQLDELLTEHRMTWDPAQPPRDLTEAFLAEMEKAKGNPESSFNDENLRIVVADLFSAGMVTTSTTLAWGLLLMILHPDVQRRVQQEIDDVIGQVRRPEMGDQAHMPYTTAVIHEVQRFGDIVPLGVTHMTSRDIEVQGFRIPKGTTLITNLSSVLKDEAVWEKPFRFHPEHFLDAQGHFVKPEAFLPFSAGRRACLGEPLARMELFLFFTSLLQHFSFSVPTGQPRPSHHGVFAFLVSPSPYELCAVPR
Procedure, shortened: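 P450-Glo luminescent screen: recombinant CYP2D6 enzyme–proluciferin substrate mix preincubated with compound 10 min at room temperature, then NADPH regeneration added for 1 h at room temperature. Detection reagent added for 20 min; luciferin light read as relative luminescence units.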

[2] = Primary qHTS for inhibitors of nuclear receptor binding SET domain protein 2 (NSD2) in an isogenic RCH-ACV NSD2 p.E1099K mutant (9B) (AID 1645876); details: activity change, negative = viability loss: at 44.9 µM (top of the series) unless noted; also: nearly all actives have a fitted effect of over 70% in size
HaCat = assay: Cytotoxic Profiling of Annotated Libraries Using Quantitative High-Throughput Screening (AID 1296008); details: Five cell lines viability, CellTiter-Glo ATP luminescence, 48-72 h; max response: stronger effect = lower value; also: nearly all actives have a fitted effect of over 60% in size; as to max response: % is scaled to controls: 0 for no effect and ±100 for the full control effect
Procedure, shortened: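 Cells exposed to compounds for 48 or 72 hr at 37 degrees Celsius. Viability read as ATP-coupled luminescence with CellTiter-Glo after 10 min at room temperature.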

C33A = assay: Primary qHTS to identify gynecologic anti-cancer compounds using libraries of approved drugs and bioactive compounds (AID 1345084); details: Gynecologic cancer cell panel viability, ATPlite luminescence, 48 h; series mostly up to 57.5 µM; also: nearly all actives have a fitted effect of over 55% in size; as to activity change, negative = cytotoxicity: % is scaled to controls: 0 for no effect and ±100 for the full control effect
Procedure, shortened: (§1)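 Measured: luminescence after ATPlite addition (15 min, RT). Exposure: 48 h, 37 C, 5% CO2.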

CAOV3 = assay: as above; details: Gynecologic cancer cell panel viability, ATPlite luminescence, 48 h; series mostly up to 57.5 µM
Procedure, shortened: as §1

CASKI = assay: as above; details: Gynecologic cancer cell panel viability, ATPlite luminescence, 48 h; series mostly up to 57.5 µM
Procedure, shortened: as §1

HeLa = assay: as above; details: Gynecologic cancer cell panel viability, ATPlite luminescence, 48 h; series mostly up to 57.5 µM
Procedure, shortened: as §1

Hek293T = assay: as above; details: Gynecologic cancer cell panel viability, ATPlite luminescence, 48 h, control line for the selectivity index; series mostly up to 57.5 µM
Procedure, shortened: as §1

JEG-3 = assay: as above; details: Gynecologic cancer cell panel viability, ATPlite luminescence, 48 h; series mostly up to 57.5 µM
Procedure, shortened: as §1

OV90 = assay: as above; details: Gynecologic cancer cell panel viability, ATPlite luminescence, 48 h; series mostly up to 57.5 µM
Procedure, shortened: as §1

PA-1 = assay: as above; details: Gynecologic cancer cell panel viability, ATPlite luminescence, 48 h; series mostly up to 57.5 µM
Procedure, shortened: as §1

SKOV3 = assay: as above; details: Gynecologic cancer cell panel viability, ATPlite luminescence, 48 h; series mostly up to 57.5 µM
Procedure, shortened: as §1

Tov-21-G = assay: as above; details: Gynecologic cancer cell panel viability, ATPlite luminescence, 48 h; series mostly up to 57.5 µM
Procedure, shortened: as §1

[3] = Primary qHTS for inhibitors of nuclear receptor binding SET domain protein 2 (NSD2) in an RCH-ACV wild type WT cells (2C) (AID 1645877); details: activity change, negative = cell killing: at 44.9 µM (top of the series) unless noted; also: nearly all actives have a fitted effect of over 70% in size; as to activity change, negative = cell killing: % is scaled to controls: 0 for no effect and ±100 for the full control effect
Tov112D = assay: Primary qHTS to identify gynecologic anti-cancer compounds using libraries of approved drugs and bioactive compounds (AID 1345084); details: Gynecologic cancer cell panel viability, ATPlite luminescence, 48 h; series mostly up to 57.5 µM; also: nearly all actives have a fitted effect of over 55% in size; as to activity change, negative = cytotoxicity: % is scaled to controls: 0 for no effect and ±100 for the full control effect
Procedure, shortened: as §1

[4] = test system: Zika virus NS2B-NS3 protease (unlinked complex); assay: Primary screen GU Rhodamine qHTS for Zika virus inhibitors: Unlinked NS2B-NS3 protease assay (AID 1347159); details: Recombinant ZIKV NS2B-NS3 protease, Rhodamine110 substrate fluorescence; activity change, negative = inhibition: at 107 µM (top of the series); also: nearly all actives have a fitted effect of over 60% in size
Procedure, shortened: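 Noncovalent NS2B hydrophilic domain/NS3 protease complex (25 nM final) in 10 mM Tris-HCl pH 8.0, 0.01% Tween 20, preincubated 15 min with compounds (up to 114 microM), then 1.5 microM Rhodamine110 substrate. Fluorescence change over 15 min fitted to 4-parameter Hill.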

[5] = test system: Zika virus NS2B-NS3 protease (linked construct); assay: Primary screen NINDS Rhodamine qHTS for Zika virus inhibitors (AID 1347160); also: nearly all actives have a fitted effect of over 55% in size
Procedure, shortened: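 Purified NS2B-NS3 protease with the NS2B hydrophilic domain joined by a flexible linker (25 nM) in 10 mM Tris-HCl pH 8.0, 0.01% Tween 20, preincubated 15 min at RT with compound; Rhodamine110 peptide substrate 1.5 µM; fluorescence change over 15 min; 4-parameter Hill fit.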

[6] = Primary fluorescence-based thiol-reactive (MSTI) qHTS assay for identification of artifact compounds. (AID 1845221);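 also: thiol-reactive compounds lower the probe fluorescence signal; nearly all actives have a fitted effect of over 65% in size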
Procedure, shortened: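 Reactivity toward the thiol probe MSTI (4 uM) is scored by fluorescence at Ex/Em 525/598 nm after 1 h at room temperature. Acetyl-MSTI and MSTI define the activity scale.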

[7] = P-glycoprotein substrates identified in KB-8-5-11 adenocarcinoma cell line, qHTS therapeutic library screen (AID 1346987); details: activity change, negative = cytotoxicity: at 44.5 µM (top of the series); also: nearly all actives have a fitted effect of over 65% in size
Procedure, shortened: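 KB-8-5-11: colchicine-selected sub-line of KB-3-1 over-expressing P-gp; assay medium lacked colchicine. 72 h drug exposure at 37 degree C, CellTiter-Glo.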
Potency is read from the fitted curve at half-maximal effect; tags tell the direction and shape of the fitted curve.

CC[C@H](CO)Nc1nc(NCc2ccc(-c3ccccn3)cc2)c2ncn(C(C)C)c2n1
inconclusive: Potency [1] 21.3 µM [inhibitor, single point] | Potency (HaCat) 0.13 µM [inhibitor, full curve, poor fit] | Potency (CAOV3) 1.58 µM [cytotoxic, full curve, poor fit] | Potency (Hek293T) 1.26 µM [cytotoxic, full curve] | Potency (JEG-3) 0.794 µM [cytotoxic, full curve, poor fit] | Potency (OV90) 1 µM [cytotoxic, full curve] | Potency (SKOV3) 39.8 µM [cytotoxic, partial curve, poor fit] | Potency (Tov-21-G) 1.41 µM [cytotoxic, single point]
active: Potency [2] 459 nM | Potency (C33A) 1.26 µM | Potency (CASKI) 2.51 µM | Potency (HeLa) 3.16 µM | Potency (PA-1) 1 µM

CC(=O)N(CC(=O)N(C)C)c1ccccc1
inactive: Potency [3] | max response (HaCat) -4.61% | Potency (Tov-21-G)
inconclusive: Potency (CAOV3) 39.8 µM [cytotoxic, single point] | Potency (CASKI) 3.98 µM [cytotoxic, partial curve, poor fit] | Potency (JEG-3) 39.8 µM [cytotoxic, single point] | Potency (OV90) 39.8 µM [cytotoxic, partial curve, poor fit] | Potency (PA-1) 0.398 µM | Potency (Tov112D) 1 µM [cytotoxic, partial curve, poor fit]

Cc1oc2ccccc2c1CNC(=O)NCc1cccs1
inactive: Potency [4] | Potency [5] | Potency [3] | Potency (C33A) | Potency (SKOV3)
inconclusive: Potency (HaCat) 18.4 µM [inhibitor, single point]

C[C@@H]1[C@H]2[C@H](O[C@@H]3O[C@H](CO)[C@@H](O)[C@H](O)[C@H]3O)OC=C(C(=O)O)[C@H]2C[C@@H]1O
inconclusive: Potency [6] 13.1 µM [inhibitor, partial curve] | Potency (CAOV3) 3.55 µM [rising, full curve]
inactive: Potency [5] | max response (HaCat) -4.56% | Potency (CASKI) | Potency (JEG-3)

Cc1cc(OCc2nc(-c3ccccc3Cl)cs2)ccc1OCC(=O)O
inconclusive: Potency (CAOV3) 6.31 µM [cytotoxic, single point]
active: Potency [4] 12.6 µM | Potency [5] 14.1 µM
inactive: Potency [2] | outcome (HaCat) | Potency (HeLa)

N#Cc1cccc(-c2c[nH]c3ncnc(N4CCOCC4)c23)c1
inconclusive: Potency [7] 29.1 µM [inhibitor, single point] | Potency [1] 3.79 µM [inhibitor, partial curve, poor fit] | Potency [2] 18.3 µM [inhibitor, single point] and 20.9 µM [inhibitor, partial curve] | Potency [3] 16.3 µM [inhibitor, single point] and 29.5 µM [inhibitor, single point] | Potency (C33A) 11.2 µM [rising, partial curve]
inactive: Potency [4] | outcome (HaCat)

O=C(O)CP(=O)(O)O
inactive: Potency [1] | Potency [2] | Potency (CAOV3) | Potency (CASKI) | Potency (OV90) | Potency (SKOV3)
inconclusive: Potency (HaCat) 33.5 µM [inhibitor, single point] | Potency (PA-1) 8.91 µM [rising, single point]

OC/C=C/C=C/[C@H]1Cc2cc(O)cc(O)c2O1
inconclusive: Potency [3] 18.3 µM [inhibitor, partial curve, poor fit] | Potency (CAOV3) 20 µM [rising, single point]
inactive: max response (HaCat) -12.2% | Potency (HeLa) | Potency (SKOV3)
active: Potency [4] 39.8 µM | Potency [6] 8.44 µM

CC12CCC(=O)C=C1C(O)CC1C2C(O)CC2(C)C1CC[C@]2(O)C(=O)CO (stereo not given in full)
inactive: activity change, negative = cell killing [3] -15% [at 9.23 µM] | max response (HaCat) 0.87% | activity change, negative = cytotoxicity (OV90) 9.39% [at 11.6 µM]
inconclusive: Potency (CAOV3) 3.55 µM [cytotoxic, partial curve, poor fit]

C=CC(C)(CCC=C(C)C)O[C@@H]1O[C@H](CO)[C@@H](O)[C@H](O)[C@H]1O (stereo not given in full)
inconclusive: Potency (CAOV3) 3.16 µM [cytotoxic, single point]
inactive: Potency [4] | max response (HaCat) -2.03% | Potency (SKOV3)
